Among all 150,000 compounds or so, about 540 (0.36%) showed an effect of 50% or more. Some of the results follow.
What follows are compounds tested on Plasmodium falciparum (assay: Primary screen in NF54 nanoGlo assay, in single point, at 2uM, 72h; a lower Z score goes with more inhibition). Settings: timepoint 72 hour.
Assay type: functional, Erythrocyte

SMILES	% Inhibition	Z score
O=C(NCc1ccccc1)c1coc(CN(Cc2cccc(Oc3ccccc3)c2)Cc2ccc3c(c2)OCO3)n1	-19%	1.86
C[C@H]1CN(C(=O)Cc2ccn[nH]2)C(C)(C)CO1	-2%	0.3
COc1ccc(CN2C(=O)N(c3cccc(C(F)(F)F)c3)C(=O)[C@@H]3[C@H]2CCN3C(=O)CCC(=O)O)cc1	34%	-3.86
Cn1c(N2CCC[C@H](C(=O)NCC3CCN(Cc4cccc(Cl)c4)CC3)C2)cc(=O)n(C)c1=O	-11%	1.84
Nc1ncnc2c1ncn2CCC(=O)N1CCC[C@@]2(CCOC2)C1	-12%	1.66
CC1CC(NC(=O)NCc2ccc(C3CC3)cc2)CC(C)O1 (stereo unspecified)	-6%	0.51
CN(C)S(=O)(=O)c1ccc(F)c(NC(=O)NC2CN(C(=O)OC(C)(C)C)C2)c1	-2%	0.3
O=C(c1cnsn1)N1CCCC[C@@H]1Cc1ccc(O)cc1	-5%	0.97
CCc1ncc(CN(C)CCCC2CCCC2)cn1	-2%	0.26
Fc1ccc(-c2cnc3n2C[C@H](CNCc2cccnc2)OC3)cc1	-15%	2.32
Cc1c(-c2cc(-c3cnn(C)c3C)n(-c3ccccc3)n2)cnn1C	29%	-3.3
O=C(Nc1ccc(C(=O)N2CCC2)cc1)c1ccccc1	-4%	0.43
Cc1cc2c(NC3CCC(Oc4cnccn4)CC3)nccn2n1 (stereo unspecified)	6%	-0.58
COCCNc1c(-c2ccccc2)nc2sc(C(=O)NCc3cccnc3)c(C)n12	-31%	3.13
COCc1cc(C(=O)NCC2(c3c(F)cccc3F)CCC2)no1	13%	-1.28
Cc1sc(NC(=O)CN2C[C@@H](O)C[C@H]2CO)c(C)c1C	-3%	0.3
Cc1cc(S(=O)(=O)Nc2ncn(-c3ccccc3)n2)c(C)o1	-6%	0.64
COc1ccnc(N2CCN(c3cc(C)nc(C4CC4)n3)CC2)c1	-10%	0.92
CC(C)(C)C1=CCN(CCNC(=O)[C@H]2CCc3cn[nH]c3C2)CC1	-7%	1.35
O=C(NC1CC1)[C@@H]1CCCN1c1noc(-c2ccccc2)n1	4%	-0.52
CCOC(=O)N1CCC(NC(C)C(O)c2c(F)cccc2F)CC1 (stereo unspecified)	6%	-0.65
O=C(O)CN(Cc1ccco1)c1cccc(Cl)c1	4%	-0.54
O=C(Nc1ccc(-n2cnnn2)cc1)c1ccc(OCc2nc(C3CC3)cs2)cc1	-12%	2.22
O=C(CCC1CCN(C(=O)[C@@H]2CC=CCC2)CC1)Nc1ccc2c(c1)OCCO2	-7%	0.89
O=C(CC1CCCC1)N1CCC[C@H](CN2CCCC2)CC1	0%	0.04
c1ccc(-c2noc(CCCc3c[nH]c4ccccc34)n2)cc1	-11%	1.42
Cc1[nH]c(=O)c(C#N)c(C)c1CCC(=O)N1CCN(Cc2csc(-c3ccco3)n2)CC1	-3%	0.48

SMILES	% Inhibition	Z score
COC1CCCC(C(=O)N2CCN(Cc3c(-c4ccc(Cl)cc4)nc4ccc(-c5ccc(Cl)cc5C)cn34)CC2)C1 (stereo unspecified)	6%	-0.5
O=S(=O)(Cc1nnc(C2CC2)o1)c1ccc(Br)cc1	-17%	2.57
Cc1cc(-c2cc(S(=O)(=O)N[C@@H](C)c3ccc4c(c3)OCCO4)c(C)s2)[nH]n1	-17%	1.73
Cn1cc(-c2nc([C@H]3CCOC3)no2)c2ccccc21	-3%	0.5
Cc1noc(C)c1NC(=O)NC[C@H]1CCN(Cc2ccccc2F)C1	-18%	1.75
NC(=O)c1cc(Cl)ccc1OCC(=O)c1ccc2c(c1)-c1ccccc1C2	1%	-0.18
CCn1c(=O)c(N2CCN(C(=O)Nc3ccc(F)cc3F)CC2)nc2ccccc21	36%	-5.14
Cc1ccc2ncn(CC(=O)N3CC4(CNC(=O)O4)C3)c2c1	-19%	2.65
CCN(C(=O)c1cnc(C)c(Br)c1O)C1CC1	-9%	0.87
Cn1ncc2c(NC(c3cccs3)c3cccs3)ncnc21	-7%	1.05
CC(C)(C)NCCCCOc1ccccc1F	-8%	1.44
CC1CC(CNC(=O)N2CCN(c3nccnc3C#N)CC2C)C(C)O1 (stereo unspecified)	-10%	1.79
Cc1cc(NC(=O)[C@@H]2COc3ccccc3O2)ccc1N1CCCC1=O	-17%	2.27
CC1(C)CN(C(=O)NC2CCCC2)CC[C@]1(C)O	7%	-1.13
CN1C(=O)NC(C)(C2CCCN(CCc3cccs3)C2)C1=O (stereo unspecified)	-14%	1.64
Clc1cnn(CCN2CCC[C@H]2COc2ccccc2)c1	-1%	0.12
Cc1nnc(CN2CC(C)(C)[C@@](C)(O)C2)s1	-16%	2.68
CCCN1CCN(C(=O)Cn2cccc2-c2nc(-c3ccc(C)cc3)cs2)CC1	-10%	1.48
CCOC(=O)c1nccc(N2CCC[C@H](NCC(F)(F)F)C2)n1	5%	-0.61
COc1cc2c(cc1CNCCc1cnn(-c3ccccc3)c1)OCCCO2	2%	-0.4
C[C@@H](CN1CCOCC1)NC(=O)c1ccccc1-c1nc[nH]n1	-7%	0.96
Cc1cc(N2CCCCS2(=O)=O)cc(C)c1S(=O)(=O)N1CCCC1	-12%	1.74
O=C1N[C@@]2(CCS(=O)(=O)c3ccc(F)cc32)C(=O)N1Cc1ccc(F)cc1	-8%	0.64
Cc1c(CN2C[C@H](C)OCC2(C)C)cc(C#N)n1C	-6%	0.66
O=C(Cn1ccnc1-c1cccc(C(F)(F)F)c1)NCC1CC1	-6%	0.83
C[C@H]1CN(c2cc(CNC(=O)N(C)CC3CCC3)ccn2)CCO1	7%	-0.67

— ChEMBL document CHEMBL4888484, “Replenishing the malaria drug discovery pipeline: Screening and hit evaluation of the MMV Hit Generation Library 1 (HGL1) against asexual blood stage Plasmodium falciparum ,using a nano luciferase reporter read-out” (2022)
